From PubChem BioAssay AID602179 (National Center for Advancing Translational Sciences (NCATS), 2012)
Hit rate of the full screen: of about 390,000 compounds, about 360 (0.092%) were called active. This list was built around the results that the source calls inconclusive (neither active nor inactive); the mix of calls is not that of the screen. Calls come from the whole dose curve; as a rule, active = well fitted inhibition curve with a large enough effect; inconclusive = small, poorly fitted or top-dose-only effect; inactive = no such curve, though single readings can be large or run the other way. Potencies beside an inconclusive call are fits to weak or partial responses and may not hold up.

The compounds below were run against Isocitrate dehydrogenase [NADP] cytoplasmic (Homo sapiens) (UniProt O75874) (assay: qHTS for Inhibitors of mutant isocitrate dehydrogenase 1 (IDH1): qHTS). Conditions: IDH1-R132H enzyme, NADPH consumption, diaphorase/resazurin fluorescence; series mostly up to 76.6 µM; activity change, negative = inhibition: at the top concentration.
Text: Unbiased genomic sequencing for 22 glioma genomes found recurrent mutation of isocitrate dehydrogenase 1 (IDH1) on chromosome 2q33-a gene encoding the cytosolic isoform of IIDH1associated with the tricarboxylic acid cycle (TCA) that catalyzes the oxidative decarboxylation of isocitrate, yielding alpha-ketoglutarate and CO2 via NADP+ to NADPH conversion. Subsequent studies confirmed the recurrent IDH mutations in up to 70% of secondary gliomas and in 10% of AML cases. […] This in effect defines IDH1 as an oncogene, and provides an extraordinary opportunity to discover chemical probes against mutant IDH1 that may translate into much needed new therapies for glioma and AML patients. […] NIH Chemical Genomics Center [NCGC] NIH Molecular Libraries Probe Centers Network [MLPCN] MLPCN Grant: DA032129 Assay Submitter (PI): Lenny Dang, Agios Pharmaceuticals
IDH1-R132H (0.5 ug/mL) was dispensed into black, solid-bottom 1536-well plates at 3 uL/well in 20 mM Tris-HCl (pH 7.5), 150 mM NaCl, 10 mM MgCl2, 4 mM beta-ME, and 0.05% protease-free BSA. Then, 23 nL of compounds or DMSO were delivered to each well using a pin tool. A pre-read was run on the Viewlux to identify fluorescent compounds (540 nm excitation filter, 598 nm emission filter, bodipy mirror and 2 second exposure). After 30 minutes of incubation with compound, 3 uL of substrate mix were dispensed (0.016 mM NADPH, 2 mM alpha-KG, 20 mM Tris-HCl (pH 7.5), 150 mM NaCl, 10 mM MgCl2, and 0.05% protease-free BSA). Plates were spun for 1 min at 1000xg and incubated at room temperature for 80 min. Then 1.5 uL of each detection reagent component for the coupling system were added (0.12 mg/mL diaphorase and 0.072 mM resazurin, each in 20 mM Tris-HCl (pH 7.5), 150 mM NaCl, 10 mM MgCl2, and 0.05% protease-free BSA ) The protein, substrate and two detection components were maintained at 4 °C throughout the screen. Additionally, the substrate and resazurin reagents were protected from light. The plates were measured on an Envision plate reader for fluorescence signal using a 540 nm excitation filter and 590 nm emission filter with 10 flashes. 1x and 0x (no-enzyme) IDH1-R132H enzyme control were used to normalize %Activity of identified inhibitors; 0x enzyme values corresponded to 100% Activity (full inhibition), while 1x IDH1-R132H enzyme values were used to normalize 0%Activity (no inhibition). Concentration-response curves were fitted to the signals arising from the resulting fluorescence. The concentration-effect curves were then classified based on curve quality (r2), response magnitude and degree of measured activity, and compounds were subsequently categorized based on their curve class. […] Keywords: isocitrate dehydrogenase, IDH1, IDH1-R132H, MLSMR, MLPCN, NIH Roadmap, qHTS, NCGC
Note: nearly all actives have a fitted effect of over 65% in size.
Potency is the fitted concentration of half-maximal effect; tags give direction and shape of the fitted curve.

Row | SMILES | Potency | activity change, negative = inhibition
1 | Cn1c(=O)n(C)c2cc(N3CCCCC3)c(NC(=O)Nc3ccc(Br)cc3)cc21 | inconclusive: 44.7 µM [inhibitor, partial curve, poor fit] | –
2 | O=C(COc1ccc(Br)cc1Br)NC(=S)N1CCCc2ccccc21 | – | inactive: 7.46%
3 | CCOC(=O)c1cc2c(=O)n3ccccc3nc2n(CC2CCCO2)c1=NC(=O)c1ccccc1OCC (stereo unspecified) | inconclusive: 70.8 µM [inhibitor, single point] | –
4 | O=C(Nc1ccccc1)C1=C[C@H](c2csc3ccccc23)C[C@H](OCc2ccc(CO)cc2)O1 | – | inactive: -3.75%
5 | CC(c1ccccc1)N1C(=O)/C(=C/c2ccncc2)SC1=S (stereo unspecified) | inconclusive: 58.5 µM [inhibitor, single point] | –
6 | CCN1CC=C2C(C#N)=C(N)C(C#N)(C#N)C(c3cc(Cl)ccc3Cl)C2C1 (stereo unspecified) | inconclusive: 46.5 µM [inhibitor, partial curve] | –
7 | NNC(=O)CN1C(c2cccc(Cl)c2)=Nc2ccc(Br)cc2C1c1ccccc1 (stereo unspecified) | inconclusive: 52.1 µM [inhibitor, single point] | –
8 | CN(C(=O)c1sc2nc(N3CCCC3)c3c(c2c1N)CC(C)(C)OC3)c1ccccc1 | inconclusive: 52.1 µM [inhibitor, partial curve] | –
9 | Cc1ccccc1-c1nc(CS(=O)(=O)CC(=O)NCCCN2CCCC2=O)c(C)o1 | – | inactive: 1.7%
10 | CCn1c(=O)n(CC)c2cc(N3CCCCC3)c(NC(=O)Nc3ccccc3C(F)(F)F)cc21 | inconclusive: 39.8 µM [inhibitor, partial curve] | –
11 | CCOC(=O)c1cc2c(=O)n3ccccc3nc2n(CC(C)C)c1=NC(=O)c1cc2ccccc2o1 | inconclusive: 50.1 µM [inhibitor, single point] | –
12 | Cc1cc(NC(=O)CCC(=O)N(c2ccccc2C)C(C(=O)NC2CCCC2)c2ccccc2)no1 (stereo unspecified) | inconclusive: 58.5 µM [inhibitor, partial curve] | –
13 | COC(=O)[C@H]1[C@H]2C[C@H]3c4[nH]c5ccccc5c4CCN3C[C@H]2CC[C@@H]1O | – | inactive: -3.18%
14 | O=C(CSc1nc(-c2ccccc2)no1)N1CCN(c2ccccc2F)CC1 | inconclusive: 44.7 µM [inhibitor, partial curve, poor fit] | –
15 | CCSc1sccc1C1C(C#N)=C(N)N(c2cccnc2)C2=C1C(=O)CC(C)(C)C2 (stereo unspecified) | active: 58.5 µM | –
16 | Cc1nn(-c2ccccc2)c(Cl)c1CN(C(=O)CCl)c1ccc(Cl)cc1 | active: 52.1 µM | –
17 | CCN(CC)CCn1c(=S)[nH]c2cc3c(cc2c1=O)OCO3 | inconclusive: 26.1 µM [inhibitor, single point] | –
18 | CCCOc1ccc(-c2nn(-c3ccccc3)cc2C2NC(=O)NC(C)=C2C(=O)OC(C)C)cc1 (stereo unspecified) | inconclusive: 44.7 µM [inhibitor, single point] | –
19 | CCC(=O)N(CCC1(c2ccccc2OC)CCOC(C(C)C)C1)Cc1ccco1 (stereo unspecified) | inconclusive: 41.4 µM [inhibitor, partial curve] | –
20 | COC(=O)C1=CC(C(=O)c2cccs2)=NN(c2ccc(OC)cc2)C1C(=O)OC (stereo unspecified) | inconclusive: 0.521 µM [inhibitor, partial curve] | –
21 | O=C(Nc1ccc(S(=O)(=O)Nc2cnc3ccccc3n2)cc1)c1ccc(Cl)cc1Cl | – | inactive: -14.6%

Row | SMILES | Potency | activity change, negative = inhibition
22 | Cc1ccc2c(c1)c1ccc3c(c1n2C)C(=O)C=CC3=O | active: 41.4 µM | –
23 | CC(C)COc1ccc(C(=O)CCN2CCCCC2)cc1 | – | inactive: -2.98%
24 | CCc1ccccc1NC(=O)Nc1cccn(Cc2ccccc2F)c1=O | – | inactive: -7.34%
25 | N#C/C(=C\c1ccc(Cl)cc1)c1nc(-c2cc3ccccc3oc2=O)cs1 | – | inactive: -4.73%
26 | COc1cc(NS(=O)(=O)c2ccc(Nc3nc(-c4cccc([N+](=O)[O-])c4)cs3)cc2)nc(OC)n1 | inconclusive: 63.1 µM [inhibitor, single point] | –
27 | O=C(CCN1C(=O)S/C(=C\c2ccccc2)C1=O)Nc1ccc(S(=O)(=O)Nc2nccs2)cc1 | inconclusive: 58.5 µM [inhibitor, partial curve, poor fit] | –
28 | Cc1[nH][nH]c(=O)c1C(c1ccc(-c2ccc(Cl)c(Cl)c2)o1)c1c(C)[nH][nH]c1=O | inconclusive: 50.1 µM [inhibitor, single point] | –
29 | COc1cc(Cl)c(C)cc1NC(=O)c1ccc2c(SCC(=O)O)c3c(nc2c1)CCCC3 | inconclusive: 39.8 µM [inhibitor, partial curve] | –
30 | COc1ccc(C)cc1N(C(=O)c1snc(C(N)=O)c1N)C(C(=O)NC1CCCCC1)c1ccc(C)o1 (stereo unspecified) | inconclusive: 14.7 µM [inhibitor, single point] | –
31 | C=CCN1C(=O)/C(=C/c2ccc(O)c(OC)c2)S/C1=N/c1nccs1 | inconclusive: 52.1 µM [inhibitor, single point] | –
32 | COc1ccc(N2CC(NC(=O)c3ccc4c(c3)OCO4)CC2=O)cc1 (stereo unspecified) | – | inactive: 4.51%
33 | Cc1onc(-c2c(F)cccc2Cl)c1C(=O)Nc1cc(S(=O)(=O)N2CCCCC2)ccc1O | active: 52.1 µM | –
34 | CC1=NOC(=O)/C1=C\c1ccc(-c2ccccc2Br)o1 | inconclusive: 58.5 µM [inhibitor, single point] | –
35 | Cc1ccc(-c2c(C)n3c4c(=O)n(C)c(=O)n(C)c4nc3n2-c2cccc(O)c2)cc1 | inconclusive: 44.7 µM [inhibitor, partial curve, poor fit] | –
36 | CCOC(=O)c1c(NC(=O)COC(=O)c2ccccc2NC)sc(C(=O)N(C)C)c1C | active: 11.7 µM | –
37 | COc1ccc(C(CC(=O)c2ccccc2)S(=O)(=O)c2ccc(C)cc2)cc1 (stereo unspecified) | – | inactive: 3.73%
38 | CC(OC(=O)c1ccccc1Br)C(=O)Nc1nc(-c2cccc([N+](=O)[O-])c2)cs1 (stereo unspecified) | – | inactive: 0.869%
39 | O=C(O)c1ccc(N2C(=O)c3[nH]nc(-c4ccccc4)c3C2c2cccc(F)c2)cc1 (stereo unspecified) | inconclusive: 39.8 µM [inhibitor, partial curve] | –
40 | Cc1ccc(NC(=O)Cn2c(=O)oc3cc(S(=O)(=O)N4CCC(C)CC4)ccc32)cc1Cl | inconclusive: 50.1 µM [inhibitor, single point] | –
41 | c1ccc2oc(C3=NNC(=NC4CC4)SC3)cc2c1 | inconclusive: 58.5 µM [inhibitor, single point] | –
